# Source: PubChem BioAssay AID602310 (National Center for Advancing Translational Sciences (NCATS), 2012)
# Hit rate of the full screen: of about 410,000 compounds, about 310 (0.076%) were called active. Inconclusive means that the source gave no clear call. Such entries were picked first, then a sample of the others. Calls follow the shape of the dose curve; as a rule, active = well fitted curve in the direction sought with a large enough effect; inconclusive = small, poorly fitted or top-dose-only effect; inactive = flat fitted curve, though single readings scatter. Where the call is inconclusive, the potency comes from a doubtful curve fit.
# Target: DNA dC->dU-editing enzyme APOBEC-3G (Homo sapiens) (UniProt Q9HC16)
# Chain of UniProt Q9HC16 (Q9HC16 whole entry, looked up): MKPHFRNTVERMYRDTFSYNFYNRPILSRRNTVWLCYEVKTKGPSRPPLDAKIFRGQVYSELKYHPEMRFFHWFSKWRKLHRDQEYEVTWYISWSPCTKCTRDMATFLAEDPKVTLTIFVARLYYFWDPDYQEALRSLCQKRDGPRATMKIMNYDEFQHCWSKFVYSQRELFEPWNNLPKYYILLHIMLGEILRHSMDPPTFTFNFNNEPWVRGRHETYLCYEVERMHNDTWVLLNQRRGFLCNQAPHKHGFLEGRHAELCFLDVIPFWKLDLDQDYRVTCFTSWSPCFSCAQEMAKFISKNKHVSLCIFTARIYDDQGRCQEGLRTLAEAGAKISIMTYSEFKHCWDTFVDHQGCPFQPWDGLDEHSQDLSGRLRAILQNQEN
# Assay: qHTS for Inhibitors of Vif-A3G Interactions: qHTS; also: nearly all actives have a fitted effect of over 60% in size;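 as to activity, negative = active: hits raise eYFP signal because A3G escapes Vif-driven loss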
# Settings: HeLa A3G-eYFP + Vif (tagged APOBEC3G with the HIV-1 protein that degrades it), YFP fluorescence, overnight; series mostly up to 46.1 µM; activity, negative = active: at the top concentration
# Outline: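 Read-out is eYFP fluorescence (Ex 488/Em 500-530) from Vif-expressing HeLa A3G-eYFP cells; more signal means A3G escaped Vif-mediated degradation. Cells plated overnight, compound pinned in, incubated overnight at 37 deg C.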
# % is scaled to controls: 0 for no effect and ±100 for the full control effect; potency is read from the fitted curve at half-maximal effect; tags tell the direction and shape of the fitted curve.
Compound,"activity, negative = active",Potency
O=C(NCc1ccccc1Cl)c1cnc(N2CCCCC2)c2ccccc12,inactive: -3.36%,–
COc1ccc(C(=O)c2c3ccc([N+](=O)[O-])cc3[n+]([O-])n2CCCC(N)=O)cc1,–,"inconclusive: 20 µM [inhibitor, single point]"
COc1ccc(C2=NN(c3nc(C(=O)O)cs3)C(O)(C(F)(F)F)C2)c(OC)c1 (configuration not stated),inactive: -0.147%,–
Cc1ccc(-c2cc(-c3ccc(C)o3)nc(N)c2C#N)cc1,–,"inconclusive: 25.1 µM [inhibitor, single point]"
Cc1csc(NC(=O)CCC(=O)N(CC(=O)NC2CCCC2)Cc2ccccc2)n1,–,"inconclusive: 3.55 µM [inhibitor, partial curve, poor fit]"
C=C1C(=O)C2=CC1CCC(=O)C1(C)CCC(OC(C)=O)C(C)(C)C1CC2O (configuration not stated),–,"inconclusive: 11.2 µM [inhibitor, partial curve]"
CC(C)OP(=O)(OC(C)C)/C(C=O)=N\Nc1ccc([N+](=O)[O-])cc1,inactive: -15%,–
COc1ccc(C)cc1NCc1cc(=O)oc2cc(-c3ccccc3)c(O)cc12,–,"inconclusive: 11.2 µM [inhibitor, partial curve]"
COC(=O)Nc1nc2ccc(-c3n[nH]c(=O)c4ccccc34)cc2[nH]1,–,"inconclusive: 3.55 µM [inhibitor, partial curve, poor fit]"
CC(C)NC(=O)c1onc(CSc2ccc(F)c(F)c2)c1C(=O)O,inactive: -16.4%,–
O=C1CCc2cc(-c3csc(-c4ccc(O)cc4)n3)ccc2N1,–,"inconclusive: 35.5 µM [inhibitor, single point]"
CC(=O)c1sc(NC(=O)C2CSC3(C)CCC(=O)N23)nc1-c1ccccc1 (configuration not stated),inactive: -8.49%,–
Cc1cccn2c(=O)c(/C=C3\SC(=S)NC3=O)c(NCCCN3CCOCC3)nc12,–,"inconclusive: 7.94 µM [inhibitor, partial curve, poor fit]"
COc1cc(C(=O)OCC(=O)NCc2ccccc2)cc(NC(=O)c2ccco2)c1OC,–,"inconclusive: 17.8 µM [inhibitor, single point]"
Cc1csc(=NC(=O)c2ccccc2)n1C,–,"inconclusive: 6.31 µM [inhibitor, single point]"
O=[N+]([O-])c1cc(C2Nc3cccc4cccc(c34)N2)ccc1Cl,inactive: -5.11%,–
Cc1ccc(C(=O)N/C(=C\c2ccc(-c3cccc([N+](=O)[O-])c3)o2)C(=O)NC(C)(C)C)cc1,–,"inconclusive: 5.62 µM [inhibitor, single point]"
C=CCNC(=O)/C(C#N)=C/c1ccccc1OCc1ccc(C(=O)OC)cc1,–,"inconclusive: 11.2 µM [inhibitor, single point]"
COc1ccc(C2=C(C#N)C(=O)OC2)cc1,–,"inconclusive: 6.31 µM [inhibitor, full curve, poor fit]"
Cc1cc(=O)[nH]c(N=N/C(=N/Nc2ccc(O)cc2)c2ccccc2)n1,inactive: 1.2%,–
CCCCN(C)CCN1C(=O)C2C(C(=O)Nc3ccc(C)cc3)C3C=CC2(O3)C1C(=O)NC1CCCCC1 (configuration not stated),inactive: 0.626%,–
Cc1cccc(NC(=O)/C(C#N)=C/c2cn(CC(=O)NCc3ccco3)c3ccccc23)c1C,–,"inconclusive: 11.2 µM [inhibitor, partial curve]"
O=c1c2ccccc2sc2ccc(NCCCN3CCOCC3)cc12,–,"inconclusive: 15.8 µM [inhibitor, partial curve, poor fit]"
COc1ccc(-c2nc3ccc(C)cn3c2NCc2ccc3c(c2)OCO3)cc1,inactive: 6.17%,–

Compound,"activity, negative = active",Potency
COc1cc(NC(=O)c2cnn3c(C)cc(C)nc23)c(OC)cc1Cl,–,"inconclusive: 5.62 µM [inhibitor, single point]"
Cc1ccc(S(=O)(=O)Nc2cccc(-c3ccc4nncn4n3)c2)cc1,–,"inconclusive: 1.78 µM [inhibitor, full curve]"
CC(=O)Nc1ccc(S(=O)(=O)N2CCCc3ccccc32)cc1,–,"inconclusive: 7.08 µM [inhibitor, full curve]"
COc1ccc(/C=C/C(=O)c2ccc3c(c2)OCO3)c(OC)c1,–,"inconclusive: 22.4 µM [inhibitor, single point]"
Cc1ccnc2ccc(I)cc12,inactive: -1.2%,–
N#CC1=C(SCC(=O)c2ccccc2)NC2=C(C(=O)CCC2)C1c1ccco1 (configuration not stated),–,"inconclusive: 10 µM [inhibitor, partial curve, poor fit]"
COc1nc(=O)n(C2C=CC(=O)O2)cc1F (configuration not stated),–,"inconclusive: 35.5 µM [inhibitor, single point]"
CN(C)c1ccc(/C=C/c2ccc3ccccc3[n+]2[O-])cc1,–,"inconclusive: 1.41 µM [inhibitor, partial curve, poor fit]"
N#Cc1c(N)nc2c(c1-c1ccc3c(c1)OCO3)CCc1ccccc1-2,–,"inconclusive: 17.8 µM [inhibitor, single point]"
CCOC(=O)C1C(=O)CC(C)(O)C(C(=O)OCC)C1c1ccco1 (configuration not stated),inactive: 6.23%,–
Cc1ccc(C2NC(=O)c3ccccc3N2)s1 (configuration not stated),–,"inconclusive: 11.2 µM [inhibitor, partial curve]"
COc1ccc(C(CC(=O)NCc2ccccc2)N2Cc3ccccc3C2=O)cc1 (configuration not stated),inactive: 3.85%,–
COc1cc(/C=C/C(=O)c2c(O)cc(C)oc2=O)cc(OC)c1O,–,"inconclusive: 15.8 µM [inhibitor, single point]"
O=S(=O)(CCOc1ccccc1)c1nc2ccccc2[nH]1,–,"inconclusive: 20 µM [inhibitor, single point]"
COc1cc(/C=C(\C#N)c2nc3ccccc3[nH]2)ccc1OC(=O)c1ccco1,–,"inconclusive: 3.16 µM [inhibitor, single point]"
CCC(=O)Oc1cccc(C(=O)Nc2ccc(-c3nnc(-c4ccco4)o3)cc2)c1,–,"inconclusive: 15.8 µM [inhibitor, single point]"
Cc1ccc2cc(CN(CC3CCCO3)C(=S)Nc3ccccc3)c(=O)[nH]c2c1 (configuration not stated),–,"inconclusive: 10 µM [inhibitor, partial curve, poor fit]"
O=C(Nc1cccc(F)c1)/C(=C/c1ccco1)NC(=O)c1ccco1,inactive: -3.43%,–
N#CC1=C(N)OC2=C(CC/C2=C\c2ccccc2)C1c1ccccc1 (configuration not stated),–,"inconclusive: 15.8 µM [inhibitor, single point]"
CC(=O)Nc1ccc(-c2csc(NCc3ccccc3)n2)cc1,inactive: -2.3%,–
O=C1Nc2ccccc2O/C1=C\c1c(F)cccc1Cl,–,"inconclusive: 12.6 µM [inhibitor, partial curve, poor fit]"
Nc1c(C(=O)Nc2ccc(F)cc2)sc2nc(-c3ccco3)ccc12,–,"inconclusive: 35.5 µM [inhibitor, partial curve, poor fit]"
O=C(CCc1ccccc1)NC(=S)Nc1cccc(Br)c1,–,"inconclusive: 17.8 µM [inhibitor, single point]"
CSc1nc(N(C)CCO)c2sc3nc(-c4ccco4)c4c(c3c2n1)CCC4,inactive: 1.03%,–

Compound,"activity, negative = active",Potency
Cc1ccc(NC(=S)N=Nc2c(O)[nH]c3ccccc23)cc1,–,"inconclusive: 10 µM [inhibitor, partial curve]"
CNc1nc(NCc2ccco2)c2ccccc2n1,inactive: -2.97%,–
CCc1nnc(NS(=O)(=O)c2ccc(NC(=S)NC(=O)c3ccc(OC)cc3)cc2)s1,inactive: -1.24%,–
CCc1c(C)nc(SCC(=O)c2cccs2)c(C#N)c1C,–,active: 12.6 µM
FC(F)(F)c1cnc(NNC(=S)Nc2ccc(Cl)cc2)c(Cl)c1,inactive: -4.3%,–
COc1ccccc1-c1cc(NC=O)c2ncc(-c3cccc(C(F)(F)F)c3)n2c1,–,"inconclusive: 10 µM [inhibitor, partial curve, poor fit]"
CCOC(=O)COc1ccc2c(=O)c(-c3ccc(OC)c(OC)c3)c(C(=O)OCC)oc2c1,inactive: 1.2%,–
NCCc1ccc(O)c(O)c1,–,inactive
C(=C1c2ccccc2-c2ccccc21)c1ccccn1,–,"inconclusive: 15.8 µM [inhibitor, single point]"
N#CC1=C(N)OC2=C(CCc3ccccc32)C1c1ccccc1Cl (configuration not stated),–,"inconclusive: 1.78 µM [inhibitor, partial curve, poor fit]"
COc1ccc(CCNC(=O)c2cccc(-n3c(C)nc4cccnc43)c2)cc1OC,inactive: 1.19%,–
COc1ccc(-c2[nH]ncc2N=Nc2ccccc2)cc1,–,"inconclusive: 7.08 µM [inhibitor, partial curve, poor fit]"
Nc1c(-c2ccccc2)cnn1-c1cccc(C(F)(F)F)c1,inactive: 0.826%,–
Cc1c(C2(O)CCCCC2)[nH]c2ccc(C(F)(F)F)cc12,–,"inconclusive: 35.5 µM [inhibitor, single point]"
Cc1ccc(-n2nc3ccc(N)cc3n2)cc1C,inactive: -9.93%,–
COc1ccc2nc(NC(=O)Nc3ccccc3OC)sc2c1,–,"inconclusive: 3.16 µM [inhibitor, full curve]"
OCCCNc1nc(-c2ccc(Cl)cc2)nc2ccccc12,inactive: 0.411%,–
CCCn1c(/C=C/c2ccco2)nc2ccccc21,–,"inconclusive: 22.4 µM [inhibitor, single point]"
O=C(Nc1ccc2oc(Cc3ccc(Cl)cc3)nc2c1)c1cccnc1,–,"inconclusive: 10 µM [inhibitor, partial curve]"
NNc1cccc(C=Cc2ccccc2)cc1=O,–,"inconclusive: 28.2 µM [inhibitor, single point]"
CCOc1ccc(CNC(=O)CCS(=O)(=O)c2cc3c(cc2Cl)NC(=O)CO3)cc1OC,inactive: 0.962%,–
COC(=O)c1ccc(NCc2c(O)ccc(O)c2Br)cc1Cl,–,"inconclusive: 20 µM [inhibitor, single point]"
Cc1cc(C)c(NC(=O)CN2CCN(S(=O)(=O)c3ccc4c(c3)OCCO4)CC2)c(C)c1,inactive: 0.376%,–
CC1=Nc2cc(C(=O)NC3CCCC3)ccc2Sc2ccc(C)cc21,–,"inconclusive: 0.316 µM [inhibitor, full curve, poor fit]"
